The whole screen tested about 110,000 compounds, of which about 230 (0.21%) showed an effect of 50% or more. This is one part of the list.
Each compound was assayed against DPAP1 (Plasmodium falciparum, UniProt Q8IIJ9) (assay: primary screen, percent inhibition; read by cleavage of a fluorogenic dipeptide substrate; higher = more effect of the substance).
Design: species or system P. falciparum D10 trophozoite lysates; single well
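Note: 30 min substrate incubation versus DMSO and 10 µM JCP410 controls.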

Chain of DPAP1 (Q8IIJ9 whole entry, looked up): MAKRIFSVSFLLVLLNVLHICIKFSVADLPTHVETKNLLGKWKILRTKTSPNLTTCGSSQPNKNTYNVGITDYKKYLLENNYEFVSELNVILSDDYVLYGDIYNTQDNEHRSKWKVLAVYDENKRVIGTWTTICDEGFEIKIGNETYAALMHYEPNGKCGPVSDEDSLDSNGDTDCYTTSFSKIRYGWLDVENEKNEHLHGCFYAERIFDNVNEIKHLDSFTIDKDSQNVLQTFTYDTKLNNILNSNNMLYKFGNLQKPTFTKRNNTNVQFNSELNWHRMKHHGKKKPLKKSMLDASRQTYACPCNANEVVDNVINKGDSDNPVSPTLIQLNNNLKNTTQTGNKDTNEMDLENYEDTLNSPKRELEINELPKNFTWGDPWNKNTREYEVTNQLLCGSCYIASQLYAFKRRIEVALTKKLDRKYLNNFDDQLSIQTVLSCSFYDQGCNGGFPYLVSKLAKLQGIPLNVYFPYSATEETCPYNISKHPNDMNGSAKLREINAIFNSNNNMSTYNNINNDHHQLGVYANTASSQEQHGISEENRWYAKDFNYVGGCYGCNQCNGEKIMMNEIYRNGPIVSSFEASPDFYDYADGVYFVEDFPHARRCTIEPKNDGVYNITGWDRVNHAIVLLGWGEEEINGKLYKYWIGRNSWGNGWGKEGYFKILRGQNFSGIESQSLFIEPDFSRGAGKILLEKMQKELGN

Row | SMILES | % Inhibition @ 10 uM
1 | COc1ccc(Nc2nc3nonc3nc2Nc2ccc(F)cc2)c(OC)c1 | 3.95%
2 | FC(F)(F)c1cccc(N2CCN(Cc3ccc(Br)s3)CC2)c1 | -5.57%
3 | O=C(c1ccc2c(c1)C(=O)N(c1ccccn1)C2=O)N1CCc2ccccc2C1 | 1.62%
4 | O=C(SCc1ccccn1)c1ccccc1 | -4.49%
5 | CCOCCc1c(O)nc(SCC(=O)NCc2ccco2)nc1O | -3.41%
6 | Cc1ccc2oc(C(=O)Nc3sc4c(c3C#N)CCCC4)cc(=O)c2c1 | -3.24%
7 | CCNC(=S)N1CCN(CC/N=C/C2=C(O)CC(c3ccccc3)CC2=O)CC1 (centres unmarked) | 4.01%
8 | COc1cc(/C=C2/C(=N)N3C=CSC3=NC2=O)cc(OC)c1OCCOc1ccccc1Cl | -7.23%
9 | Cc1nn(CC(=O)N2CCCC2)c(=O)c2nn(-c3ccccc3)c(C)c12 | -6.73%
10 | CCCSc1ncc(Cl)c(C(=O)Nc2sc3c(c2C(=O)NC)CCCC3)n1 | -4.02%
11 | N#CC1(C#N)[C@H](C(N)=O)[C@H]1c1ccccc1 | -3.13%
12 | O=C(COc1ccc2ccccc2c1Br)N1CCCCCC1 | -2.22%
13 | O=C(Cn1c(=O)n(Cc2ccco2)c(=O)c2sc3ccccc3c21)NCCCc1ccccc1 | 1.02%
14 | COc1cccc(CNCCc2ccc(Cl)cc2)c1OC | 0.214%
15 | COc1ccc2nc(NC(=O)CSc3nc4cc(C)ccc4[nH]3)sc2c1 | 25.6%
16 | COc1ccc(C2C(C(=O)c3ccc(F)cc3)=C(O)C(=O)N2CCCCCC(=O)O)c(OC)c1 (centres unmarked) | -0.178%
17 | CCN1CCN(Cc2c(O)ccc3ccccc23)CC1 | -1.41%
18 | O=C(c1cnn(-c2ccc(F)cc2)c1-n1cccc1)N1CCOCC1 | -5%
19 | CCC(/N=c1/c(-c2ccccc2)c(O)c1=O)c1cccs1 (centres unmarked) | -2.57%
20 | COc1ccc(NC(=O)CN(c2ccc(OC)c(OC)c2)S(C)(=O)=O)cc1 | 0.324%
21 | COc1ccccc1C(=O)N(Cc1ccc(C)cc1)Cc1ccco1 | 1.25%
22 | CCS(=O)(=O)Nc1c(NC)c2ccccc2oc1=O | 0.454%
23 | Cc1cc(-c2ccc(S(=O)(=O)NCc3ccc(Cl)cc3)s2)on1 | 3.74%
24 | Cn1c(=O)c(Sc2ccc(Cl)cc2)c(O)c2ccccc21 | 2.37%
25 | CC(C)(CC(NC(=O)c1ccc(-c2ccccc2Cl)cc1)C(=O)NCC#N)c1ccccc1 (centres unmarked) | -5.42%

Row | SMILES | % Inhibition @ 10 uM
26 | COc1ccc(C(=O)C2=C(O)C(=O)N(CCCN3CCOCC3)C2c2cccc(O)c2)cc1F (centres unmarked) | -3.72%
27 | CC(=O)Nc1ccc(S(=O)(=O)N2CCN(c3cc(Cl)ccc3Cl)CC2)cc1 | 3.35%
28 | O=C(NCc1ccccc1Cl)C1CCN(S(=O)(=O)c2ccccc2)CC1 | 2.17%
29 | CN1CCN(c2nc(-c3ccc(C(=O)NC(C(=O)NCC#N)C(C)(C)F)cc3)cs2)CC1 (centres unmarked) | -1.41%
30 | CCc1c(C(=O)NCc2ccc(F)cc2)[nH]c(C)c1C(C)=O | -4.96%
31 | Cc1noc(/C=C/N(C)C)c1S(=O)(=O)N1CCC(C(=O)NC2CCCc3ccccc32)CC1 (centres unmarked) | -4.69%
32 | COc1ccc(NC(=O)c2ccccc2NC(=O)c2ccco2)cc1 | 0.528%
33 | CC(=O)c1ccc(N2CCN(Cc3ccco3)CC2)cc1 | -6.12%
34 | O=C(Nc1cccnc1Cl)c1cc(C2CC2)on1 | -7.85%
35 | Cc1cc(/C=C2/NC(=O)NC2=O)c(C)n1-c1ccc2ccccc2c1 | -3.06%
36 | COc1ccc(CCNC(=O)COCc2cc(-c3ccc4c(c3)OCO4)on2)cc1OC | 2.37%
37 | CC(C)C(=O)c1ccc(OCCOc2ccc(C#N)cc2)cc1 | 0.997%
38 | CCOCCCNc1oc(COc2ccc(F)cc2)nc1C#N | -0.958%
39 | Cn1c(=O)c2c(ncn2Cc2cccc3ccccc23)n(C)c1=O | -1.47%
40 | O=C(NCC1CCCO1)c1ccc2c(c1)sc1nc(-c3ccccc3)cn12 (centres unmarked) | 12.7%
41 | CN(C)c1ccc(C2CC(c3ccccc3)=NN2c2ccccc2)cc1 (centres unmarked) | -7.12%
42 | O=C(/C=C/c1ccccc1)Nc1nnc(CSCc2ccccc2F)s1 | 1.58%
43 | CCN(CC)CCNc1ncccn1 | -3.77%
44 | Cn1c(=O)c2c(nc(N3CCOCC3)n2CCN)n(C)c1=O | 2.01%
45 | COc1ccc(C2=CC(c3cc(OC)c(OC)c(OC)c3)n3ncnc3N2)cc1 (centres unmarked) | 3.19%
46 | COC(=O)c1ccc(-c2ccc(/C=C3/C(=N)N4C(SC)=NSC4=NC3=O)o2)cc1 | -10.1%
47 | CCn1cc(NC(=O)NCC2COc3ccccc3O2)c(=O)c2ccc(C)nc21 (centres unmarked) | -1.07%
48 | Cc1cc(OCC(=O)N(C)Cc2ccccc2)cc(C)c1Cl | 2.45%
49 | CC(=O)c1sc(Nc2ccc(C)c(Cl)c2)nc1C | 0.5%
50 | CC(O)CC(C)(C)N1CCOCC1 (centres unmarked) | 0.937%

— publication PMC6919601, “Identification of Plasmodium dipeptidyl aminopeptidase allosteric inhibitors by high throughput screening” (PLoS ONE, 2019)
